About 930 (0.24%) of roughly 390,000 compounds were called active. Inconclusive results, whose numbers are uncertain, are shown with a selection of clear calls. Calls follow the shape of the dose curve; as a rule, active = well fitted activation curve with a large enough effect; inconclusive = small, poorly fitted or top-dose-only effect; inactive = no such curve, though single readings can be large or run the other way. A potency beside an inconclusive call is a rough fit, not a confirmed value.
assay: qHTS for Suppressors of FUS Proteinopathy: Primary screen using FUS-linked yeast assay; also: nearly all actives have a fitted effect of over 55% in size;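 as to growth rescue (activation): plate controls were DMSO vehicle for no effect and reference control for full effect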; conditions: S. cerevisiae FUS-expressing, OD600, 24 h; Potency: growth rescue; growth rescue (activation): at 76.6 µM (top of the series)
Outline: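 Restored growth of FUS-toxic S. cerevisiae, read as 600 nm absorbance after 24 h at 30C in galactose medium (starting OD 0.005). Controls CP55940 and DMSO.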
Potency is read from the fitted curve at half-maximal effect; tags tell the direction and shape of the fitted curve.

| SMILES | Potency | growth rescue (activation) |
| --- | --- | --- |
| Cc1ccc(Cl)cc1N1CCN(C(=O)C2CCN(S(=O)(=O)c3cccnc3)CC2)CC1 | inconclusive: 50.1 µM [activator, single point] | – |
| CC(C)(C)c1ccccc1OCC(=O)Nc1ccccc1C(=O)NCc1cccnc1 | inactive | – |
| O=C(C(=O)N1CCN(c2ccccc2)CC1)c1cn(CC(=O)N2CCCCCC2)c2ccccc12 | inconclusive: 39.8 µM [activator, single point] | – |
| CCCCCCCCN1C(=O)[C@H](CC(=O)N2CCOCC2)C[C@@]2(C(=O)OC)CC(C)(C)CC=C12 | active: 12.6 µM | – |
| Cc1ccc(C)c(NC(=O)Cn2c(=O)nc(-c3ccccc3)c3ccccc32)c1 | inactive | – |
| CC1Sc2ccc(S(=O)(=O)N3CCC(C(=O)NCC(C)c4ccccc4)CC3)cc2NC1=O (stereo unspecified) | inconclusive: 50.1 µM [activator, single point] | – |
| CCc1ccc(C(=O)c2cn(CC(=O)Nc3cc(OC)ccc3OC)c3ccc(C)cc3c2=O)cc1 | inconclusive: 25.1 µM [activator, partial curve, poor fit] | – |
| Cc1cccc(NS(=O)(=O)c2ccc3c(c2)[C@H]2C=CC[C@H]2[C@@H](c2ccc(F)cc2)N3)c1 | inconclusive: 28.2 µM [activator, single point] | – |
| C=Cc1ccc(Cn2nc(-c3ccccc3)ccc2=O)cc1 | inconclusive: 28.2 µM [activator, single point] | – |
| COc1ccc(S(=O)(=O)N2CCN(C(=O)c3cc(-c4ccccc4OC)n[nH]3)CC2)cc1 | inconclusive: 12.6 µM [activator, partial curve, poor fit] | – |
| COc1cccc(N2CCN(C(=O)C3CCN(S(=O)(=O)c4cccc5nonc45)CC3)CC2)c1 | inconclusive: 20 µM [activator, single point] | – |
| CCOC(=O)c1cc2c(=O)n3ccccc3nc2n(CCCOC)c1=NC(C)=O | inactive | – |
| CCN(CC)S(=O)(=O)c1ccc(N2CCOCC2)c(NC(=O)COc2ccccc2)c1 | inconclusive: 50.1 µM [activator, single point] | – |
| Cc1ccccc1CN1CCCCC(NC(=O)c2cc(-c3ccccc3)no2)C1=O (stereo unspecified) | inactive | – |
| CCOc1ccc(N(C(=O)c2ccccc2F)S(=O)(=O)c2ccc3c(c2)n(C)c(=O)n3C)cc1 | inconclusive: 3.98 µM [activator, single point] | – |
| O=C(N/N=C/c1cccnc1)c1cc2ccccc2cc1O | inconclusive: 20 µM [activator, partial curve] | – |
| C=CCC(=O)NC1CC(C)(C)Cc2c1cnn2-c1ccc(C)cc1 (stereo unspecified) | inconclusive: 15.8 µM [activator, partial curve, poor fit] | – |
| Cc1cccc(NC(=O)CCc2c(C)nn(-c3ccc(N4CCCCC4)nn3)c2C)c1 | inconclusive: 14.1 µM [activator, partial curve] | – |
| CCOC(=O)CC[C@H]1CC[C@]2(CCCN(C(=O)C3CCCC3)C2)O1 | inactive | – |
| COc1cccc(C2C3=C(CCCC3=O)Nc3[nH]n(-c4ccccc4)c(=O)c32)c1 (stereo unspecified) | inconclusive: 15.8 µM [activator, partial curve, poor fit] | – |
| Cc1nc2c(OCCOc3ccccc3)cccn2c1N(C)C(=O)CCC1CCCC1 | inactive | – |

| SMILES | Potency | growth rescue (activation) |
| --- | --- | --- |
| CCC[C@H]1[C@@H](NC(=O)Nc2ccc3c(c2)OCO3)CC[C@@]23CCCN2C(=O)CCC[C@@H]13 | inactive | – |
| COc1ccc(-c2nn(-c3ccccc3)cc2/C=C/C(=O)N(C)CC(=O)Nc2cccc(F)c2)cc1OC | inconclusive: 50.1 µM [activator, single point] | – |
| CCCCCCC(=O)Nc1cc2c(C)cc(=O)oc2cc1C | – | inconclusive: 48.7% [activator] |
| COCCCNC(=O)c1oc2c(c1C)-c1nn(Cc3ccc(Cl)cc3)cc1CC2 | inconclusive: 28.2 µM [activator, single point] | – |
| Cc1c(C(=O)N2c3ccccc3CC2C)oc2ccccc12 (stereo unspecified) | inactive | – |
| CCOC(=O)c1sc(NNC(=O)c2ccc(C)cc2)nc1C | inactive | – |
| Cc1ccc(N2CC(C(=O)Nc3nnc(SCc4ccccn4)s3)CC2=O)cc1 (stereo unspecified) | inactive | – |
| c1ccc(CNc2ccc(N3CCOCC3)cc2)cc1 | inconclusive: 31.6 µM [activator, partial curve, poor fit] | – |
| Cc1nn(-c2ccc(N3CCCCC3)nn2)c(C)c1CCC(=O)NCc1ccc(OC(C)C)cc1 | inactive | – |
| CC(=O)c1cccc(Nc2nc(-c3cccc(C)c3)nc3ccccc23)c1 | inconclusive: 50.1 µM [activator, single point] | – |
| CCN1c2ccccc2-c2nc(SCC(=O)NCc3ccccc3)ncc2S1(=O)=O | inactive | – |
| Cc1ccccc1N1CCN(Cc2c[nH]c3ccccc23)CC1 | inconclusive: 31.6 µM [activator, single point] | – |
| CC(C)(C)OC(=O)NCCCC[C@H](NC(=O)c1nc[nH]c1C(=O)N[C@@H](CCCCNC(=O)OC(C)(C)C)C(=O)OC(C)(C)C)C(=O)OC(C)(C)C | inconclusive: 3.98 µM [activator, full curve] | – |
| COc1cc(NC(=O)c2cc3c(s2)-c2ccccc2OC3)cc(OC)c1OC | inconclusive: 39.8 µM [activator, partial curve, poor fit] | – |
| NC(=O)CC(NC(=O)c1ccc(Br)cc1)c1ccc(N2CCCCCC2)c([N+](=O)[O-])c1 (stereo unspecified) | inconclusive: 39.8 µM [activator, single point] | – |
| C#C[C@]1(O)CC[C@H]2[C@@H]3CCc4cc(OC5CCCC5)ccc4[C@H]3CC[C@@]21C | inconclusive: 20 µM [activator, single point] | – |
| COc1cc(CC(=O)Nc2sccc2C(N)=O)cc(OC)c1OC | inconclusive: 17.8 µM [activator, partial curve, poor fit] | – |
| Cc1cc(C)nc(N(C#N)CCOc2ccccc2)n1 | inactive | – |
| CCOc1ccc(CNC(=O)c2cnc3sc(N4CCOCC4)nn3c2=O)cc1 | inactive | – |
| CCn1cc(C(=O)N2CCN(c3cccc(Cl)c3)CC2)c2cc(OC)c(OC)cc2c1=O | inconclusive: 7.08 µM [activator, partial curve, poor fit] | – |
